Measured values as given in the supplement of paper PMC6531468.
This is one part of the list. Read counts after selection give these values, which scatter widely. Each score is taken over the longer molecules that contain the sequence shown.

Assays:
Assay in all cases: 6-mer SELEX enrichment z-score vs GST control; IMP3 is the RNA-binding protein IGF2BP3; higher = more enriched by binding
IMP3 KH1-4 = settings: construct: KH1-4 (164-579); SELEX round: R4
Experimental: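 SELEX-seq with GST-tagged IMP3 KH1-4 (Pro164-Lys579) and an N40 RNA pool, round 4. 6-mer z-score of sequence-tag enrichment normalised to the corresponding GST SELEX round; RNA k-mers written as DNA (T for U).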

IMP3 RRM1-2 = settings: construct: RRM1-2 (1-163); SELEX round: R2
Chain of IMP3 RRM1-2 (chain, as listed by the source): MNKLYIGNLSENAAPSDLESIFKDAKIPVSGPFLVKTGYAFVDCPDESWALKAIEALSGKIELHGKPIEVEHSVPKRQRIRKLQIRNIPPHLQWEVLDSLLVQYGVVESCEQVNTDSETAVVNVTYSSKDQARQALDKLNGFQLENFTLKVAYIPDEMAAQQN
Experimental: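 SELEX-seq with GST-tagged IMP3 RRM1-2 (Met1-Asn163) and an N40 RNA pool, round 2. 6-mer enrichment z-score normalised to GST SELEX. RNA written as DNA (T = U).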

IMP3 full-length = IMP3 full-length (UniProt O00425); settings: construct: FL IMP3 (1-579); SELEX round: R4
Chain of UniProt O00425 (O00425 whole entry): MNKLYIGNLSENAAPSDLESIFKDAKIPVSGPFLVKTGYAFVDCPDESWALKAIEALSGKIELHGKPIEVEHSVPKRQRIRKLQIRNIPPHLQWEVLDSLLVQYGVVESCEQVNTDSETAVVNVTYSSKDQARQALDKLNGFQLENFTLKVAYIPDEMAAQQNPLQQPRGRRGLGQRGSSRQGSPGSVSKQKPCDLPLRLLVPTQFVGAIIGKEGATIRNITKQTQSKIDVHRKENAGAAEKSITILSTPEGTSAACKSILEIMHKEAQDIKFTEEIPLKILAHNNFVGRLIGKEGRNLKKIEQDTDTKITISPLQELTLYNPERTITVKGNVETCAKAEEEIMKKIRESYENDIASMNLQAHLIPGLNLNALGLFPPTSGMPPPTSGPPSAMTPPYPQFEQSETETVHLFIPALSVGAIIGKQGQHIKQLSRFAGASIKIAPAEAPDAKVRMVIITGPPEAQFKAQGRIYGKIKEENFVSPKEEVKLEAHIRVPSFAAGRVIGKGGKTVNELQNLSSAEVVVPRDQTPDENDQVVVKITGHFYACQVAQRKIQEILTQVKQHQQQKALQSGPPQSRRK
Experimental: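 SELEX-seq with GST-tagged full-length IMP3 and an N40 RNA pool, round 4. Each 6-mer is scored as an enrichment z-score of sequence tags containing it, normalised to the matching GST SELEX round. RNA written as DNA (T = U).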

IMP3 KH1-2 = settings: construct: KH1-2 (164-376); SELEX round: R4
Chain of IMP3 KH1-2 (chain, as listed by the source): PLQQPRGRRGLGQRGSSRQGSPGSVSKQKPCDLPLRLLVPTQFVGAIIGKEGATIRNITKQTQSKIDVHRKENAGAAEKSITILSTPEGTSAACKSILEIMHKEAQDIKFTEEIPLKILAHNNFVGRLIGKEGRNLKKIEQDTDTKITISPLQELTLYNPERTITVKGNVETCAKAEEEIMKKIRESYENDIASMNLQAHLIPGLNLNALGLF
Experimental: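 SELEX-seq with GST-tagged IMP3 KH1-2 (Pro164-Phe376) and an N40 RNA pool, round 4 (stringent 300/600 mM KCl washes). 6-mer z-score of sequence-tag enrichment normalised to the corresponding GST SELEX round; RNA k-mers written as DNA (T for U).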

IMP3 KH3-4 = settings: construct: KH3-4 (377-579); SELEX round: R4
Chain of IMP3 KH3-4 (chain, as listed by the source): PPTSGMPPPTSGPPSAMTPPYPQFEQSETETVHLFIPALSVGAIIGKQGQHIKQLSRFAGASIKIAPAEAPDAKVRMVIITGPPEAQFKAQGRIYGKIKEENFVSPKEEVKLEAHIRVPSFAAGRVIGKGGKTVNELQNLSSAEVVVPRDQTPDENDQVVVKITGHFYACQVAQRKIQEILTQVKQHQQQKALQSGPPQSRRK
Experimental: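 SELEX-seq with GST-tagged IMP3 KH3-4 (Pro377-Lys579) and an N40 RNA pool, round 4. 6-mer z-score of sequence-tag enrichment normalised to the corresponding GST SELEX round; RNA k-mers written as DNA (T for U).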

Chain of IMP3 KH1-4 (chain, as listed by the source): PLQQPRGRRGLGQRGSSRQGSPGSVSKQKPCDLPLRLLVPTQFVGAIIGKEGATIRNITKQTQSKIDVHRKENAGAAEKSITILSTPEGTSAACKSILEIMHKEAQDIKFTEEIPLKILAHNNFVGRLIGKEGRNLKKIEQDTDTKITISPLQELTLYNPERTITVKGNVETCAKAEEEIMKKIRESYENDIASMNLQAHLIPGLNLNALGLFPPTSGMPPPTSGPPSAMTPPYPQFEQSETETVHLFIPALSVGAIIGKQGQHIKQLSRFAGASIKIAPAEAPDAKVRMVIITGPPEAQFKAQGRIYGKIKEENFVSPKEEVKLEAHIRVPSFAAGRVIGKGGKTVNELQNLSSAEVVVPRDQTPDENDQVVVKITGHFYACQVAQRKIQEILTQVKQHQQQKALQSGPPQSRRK

| Sequence | 6-mer SELEX enrichment z-score (IMP3 KH1-4) | 6-mer SELEX enrichment z-score (IMP3 RRM1-2) | 6-mer SELEX enrichment z-score (IMP3 full-length) | 6-mer SELEX enrichment z-score (IMP3 KH1-2) | 6-mer SELEX enrichment z-score (IMP3 KH3-4) |
| --- | --- | --- | --- | --- | --- |
| AGCACT | -0.095 | 0.663 | 0.458 | -0.189 | -0.219 |
| GTTAAC | -0.577 | -0.124 | -0.608 | -0.611 | -0.469 |
| CCATAC | 0.378 | 0.639 | 0.348 | 0.589 | -0.251 |
| ATCCTG | -0.524 | -0.123 | -0.589 | -0.626 | -0.79 |
| CCATGT | 0.24 | 0.033 | -0.033 | -0.022 | -0.131 |
| GCCTGG | -0.498 | -0.018 | -0.038 | -0.393 | -0.54 |
| CGAGAC | -2.09 | -1.01 | -1.08 | -1.89 | -1.93 |
| AAGGGT | -0.066 | -0.161 | -0.07 | 0.008 | 0.175 |
| ACACCG | -0.084 | -0.045 | 0.671 | 0.176 | -0.898 |
| ATTTAT | 1.54 | 0.274 | 0.52 | 1.41 | 2.23 |
| TCAACA | 0.535 | 2.74 | 2.2 | 0.755 | 0.167 |
| ACCTGG | -1.09 | -0.487 | -0.741 | -0.981 | -1.19 |
| AAAGGT | -0.409 | -0.75 | -0.528 | -0.483 | -0.057 |
| ATTGGT | -0.083 | 0.48 | 0.076 | -0.034 | 0.056 |
| GAGTAA | -0.361 | -0.57 | -0.465 | -0.349 | 0.002 |
| CGTGTA | -0.363 | -0.05 | -0.363 | -0.38 | -0.283 |
| TACCAG | -0.334 | -0.126 | -0.333 | -0.449 | -0.529 |
| ACTATA | 2.06 | -0.117 | 0.186 | 1.98 | 2.28 |
| CACGTA | -0.329 | 0.036 | 0.02 | -0.438 | -0.447 |
| TCAATA | 1.06 | 0.921 | 1.15 | 1.23 | 1.14 |
